Some of these densities may be calculated back from excess volumes.
Test: xn = mol fraction of the nth substance listed
Conditions: 101 kPa

CC(O)C(=O)[O-].C[N+](C)(C)CCO + CCO
mass density [kg/m3]
Conditions | x2 = 0 | x2 = 0.1039 | x2 = 0.2011 | x2 = 0.2996 | x2 = 0.3999 | x2 = 0.5003 | x2 = 0.601 | x2 = 0.7013 | x2 = 0.7987 | x2 = 0.8996
293.15 K | 1145.6 | 1135.6 | 1121 | – | 1086.2 | 1062.7 | 1034.4 | – | – | 885.7
298.15 K | 1142.3 | 1132.2 | 1117.7 | 1101.6 | 1082.8 | 1059.4 | 1030.9 | 994.3 | – | 881.7
303.15 K | 1139 | 1128.9 | 1114.5 | 1098.4 | 1079.6 | 1056 | – | 990.7 | 943.9 | –
308.15 K | 1135.8 | 1125.8 | – | 1095.2 | 1076.3 | 1052.7 | 1024.1 | 987.2 | 940.2 | 874
313.15 K | 1132.7 | 1122.6 | 1108.2 | 1092 | 1073.1 | 1049.4 | 1020.7 | 983.6 | 936.5 | 869.9
318.15 K | – | 1119.6 | 1105.1 | 1088.8 | 1069.9 | 1046.1 | – | 980 | 932.8 | 865.8
323.15 K | 1126.5 | – | 1102 | 1085.7 | 1066.7 | – | 1014 | 976.5 | – | 861.8
328.15 K | 1123.5 | – | 1098.9 | 1082.5 | 1063.5 | 1039.6 | – | 973 | – | 857.9
333.15 K | 1120.5 | – | 1095.8 | 1079.4 | 1060.3 | 1036.4 | – | 969.5 | 921.7 | 853.9
338.15 K | 1117.5 | 1107.4 | 1092.7 | 1076.3 | – | 1033 | 1003.9 | 966 | 918 | 849.9
343.15 K | 1114.5 | 1104.4 | 1089.7 | 1073.2 | 1054 | 1029.8 | 1000.6 | 962.5 | 914.4 | 845.8

CC(O)C(=O)[O-].C[N+](C)(C)CCO + O
mass density [kg/m3]
Conditions | x2 = 0 | x2 = 0.0992 | x2 = 0.2048 | x2 = 0.3008 | x2 = 0.4038 | x2 = 0.5026 | x2 = 0.5858 | x2 = 0.701 | x2 = 0.7993 | x2 = 0.8998
293.15 K | 1145.6 | 1145.7 | 1144.9 | 1144.1 | – | – | – | 1133.1 | – | –
298.15 K | – | 1142.2 | 1141.5 | 1140.7 | – | – | – | 1129.7 | – | 1089.9
303.15 K | 1139 | – | 1138.2 | 1137.5 | – | – | – | – | 1115.2 | 1086.9
308.15 K | 1135.8 | 1135.7 | 1135 | – | – | – | – | 1123.1 | 1111.9 | –
313.15 K | 1132.7 | 1132.6 | 1131.9 | – | – | – | – | 1119.8 | 1108.7 | –
318.15 K | 1129.6 | 1129.5 | 1128.8 | – | – | – | 1122.5 | 1116.5 | – | 1077.9
323.15 K | 1126.5 | 1126.4 | 1125.7 | – | – | – | 1119.3 | – | – | 1074.9
328.15 K | 1123.5 | 1123.3 | 1122.6 | 1121.8 | – | – | 1116.1 | 1110 | – | 1071.7
333.15 K | 1120.5 | 1120.2 | – | – | – | – | 1112.9 | – | 1095.6 | 1068.7
338.15 K | 1117.5 | 1117.2 | 1116.4 | 1115.6 | – | – | 1109.6 | 1103.5 | 1092.5 | 1065.4
343.15 K | 1114.5 | 1114.1 | 1113.3 | 1112.5 | – | – | – | 1100.2 | 1089.1 | 1062.2
348.15 K | 1111.5 | 1111.1 | 1110.3 | 1109.5 | 1108 | 1105.7 | 1103.3 | 1096.9 | 1085.7 | –
353.15 K | 1108.5 | – | 1107.3 | 1106.4 | 1104.9 | 1102.6 | 1100.1 | 1093.7 | – | –

Reference: a compilation of properties of binary mixtures (doi:10.1039/c3ra40303c)
